Test results as given in PubChem BioAssay AID493208 (National Center for Advancing Translational Sciences (NCATS), 2011).
The whole screen tested about 44,000 compounds, of which about 340 (0.77%) were called active. Another 5% or so got no clear call; they are omitted. Calls come from the whole dose curve; as a rule, active = well fitted inhibition curve with a large enough effect; inconclusive = small, poorly fitted or top-dose-only effect; inactive = flat fitted curve, though single readings scatter. The list shows a part of the results.

Experiment: Acumen qHTS Assay for Inhibitors of the mTORC1 Signaling Pathway in MEF (Tsc2-/-, p53-/-) Cells: Sytravon;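 note: plate controls were DMSO for no effect and rapamycin for full effect; nearly all actives have a fitted effect of over 50% in size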
Settings: phospho-rpS6 immunofluorescence/PI, 24 h; series mostly up to 38.3 µM; activity change, negative = inhibition: at the top concentration
Procedure, shortened: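 Tsc2-/-, p53-/- MEFs (empty-vector stable line) in DMEM + 10% FBS were treated with compounds 24 h at 37 degree Celsius, fixed, and immunostained for phospho-rpS6 (Alexa-488) with propidium iodide counterstain. Laser-scanning cytometry gave % positive cells, normalized against 7.5 nM rapamycin and DMSO.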

Activity change, negative = inhibition, inactive:
CC(C)Oc1ccc(CNC(=O)CCCn2c(=O)c3cccn3c3ccccc32)cc1 -0.644%
CCCS(=O)(=O)Nc1cc(-c2cn3cccc(C)c3n2)ccc1C -0.483%
Cc1ccc(NCc2cccn2-c2nnc(N3CCC(C(=O)NC(C)C)CC3)s2)cc1 -9.09%
COc1ccc(-c2cn3nc(N4CCC(C(=O)NCc5ccccc5F)CC4)sc3n2)cc1 -10.4%
Cc1ccc(S(=O)(=O)N2CCCc3cc(NS(=O)(=O)c4ccc(F)c(C)c4)ccc32)cc1 0%
COc1ccc(-c2cc(C(F)(F)F)c(C#N)c(SCC(=O)Nc3ccc(F)cc3)n2)cc1 1.23%
COc1ccc(NC(=O)Cn2c(=O)oc3cc(S(=O)(=O)NC4CCCC4)ccc32)cc1OC 0.349%
CCCNC(=O)c1ccc2c(c1)ncn2-c1ccc(C)cc1C 6.83%
COc1ccc(CNc2ncnc3onc(C)c23)cc1 -5.53%
CCOC(=O)c1c(NC(=O)CS(=O)(=O)c2ccc(C)cc2)sc2c1CCCCC2 -6.09%
Cc1nc(-c2ccccc2)sc1-c1ccc(SCC(=O)NCc2ccc(F)cc2)nn1 -0.348%
Cn1c(=O)c2c(SCC(=O)N3CCc4ccccc43)nc(-c3ccccc3Cl)nc2n(C)c1=O -16.7%
Cc1ccc(C(C)C)c(OCC(=O)Nc2cccc(NC(=O)c3ccco3)c2)c1 0.706%
CC1=Nc2cc(C(=O)NCCc3ccc(Cl)cc3)ccc2Sc2ccc(C)cc21 -16%
CCC(CC)C(=O)NC1CC(=O)N(c2ccc3c(c2)OCCO3)C1 (configuration not stated) -2.5%
Cc1ccc(-c2nc3cccnc3s2)cc1NC(=O)C(C)C 0%
Cc1ccc(-c2ccc(=O)n(Cc3cc(C)ccc3C)n2)cc1 -1.58%
COC(=O)C(Cc1c[nH]c2ccccc12)NC(=O)COc1ccc(Cl)cc1Cl (configuration not stated) 3.99%
CCN(c1cc(C)cc(C)c1)S(=O)(=O)c1nnc(NC(=O)c2cccs2)s1 1.2%
CCOc1ccc(-n2c(CCC(=O)O)ccc2-c2ccc(Br)cc2)cc1 -0.0581%
CCc1ccc(CNC(=O)CCSCc2ccccc2F)cc1 5.04%
Cc1cccc(NS(=O)(=O)c2ccc3[nH]c(=O)ccc3c2)c1C 0%
COc1ccc(C(=O)c2cn(CC(=O)Nc3ccc4c(c3)OCCO4)c3ccc(OC)cc3c2=O)cc1 0.564%
COc1ccccc1OCCn1c(-c2ccc(Cl)cc2)nc2ccccc2c1=O -8.3%
O=C(CSc1nc(-c2ccccc2)no1)N1CCN(c2ccccc2F)CC1 7.27%
COc1cccc(C2=CC(c3ccc(OC)c(OC)c3OC)n3ncnc3N2)c1 (configuration not stated) -1.65%
O=C(Cn1c(=O)nc(-c2ccccc2)c2ccccc21)Nc1ccc(Cl)c(C(F)(F)F)c1 24.4%
CCN(C(=O)Cc1nc(-c2ccc(OC)cc2)no1)c1cccc(Cl)c1 -1.38%
CCC1CN(C(=O)N2CCC(C(=O)Nc3cc(C)ccc3C)CC2)c2ccccc2O1 (configuration not stated) -1.2%
Cc1cccc(-c2cc(NC(=O)C(C)(C)C)n(-c3ccccc3)n2)c1 1.39%
COc1ccc(C(CC(=O)Nc2cccc(C)c2C)N2Cc3ccccc3C2=O)cc1 (configuration not stated) -1.22%
COc1cc(C2c3c(oc4ccccc4c3=O)C(=O)N2c2nncs2)cc(OC)c1OC (configuration not stated) -2.19%
O=C(COc1ccc(F)cc1)Nc1ccccc1C(=O)OCc1cc(=O)n2nc(C3CC3)sc2n1 7.68%
CCOc1ccc(-c2cn3c(n2)sc2cc(C(=O)NCCCc4ccccc4)ccc23)cc1 -14.6%
Cc1nc2nc(SCc3ccc(F)cc3Cl)nn2c(C)c1Cc1ccccc1 9.1%
O=C(CS(=O)(=O)c1cccc2nsnc12)NCc1ccc(Cl)cc1 -6.62%
COc1ccc(-c2c(C)nn3c4c(cnc23)C(=O)CC(c2ccccc2)C4)cc1 (configuration not stated) 3.66%
CC(NC(=O)c1ccc(Nc2nc3ccccc3n3nnnc23)cc1)c1ccccc1 (configuration not stated) -11.8%
Cc1nc2nc(-c3ccc(Cl)cc3Cl)nn2c(C)c1CCC(=O)Nc1ccc(F)cc1 0.312%
COc1cccc(N2CC(NC(=O)c3ccc4c(c3)OCO4)CC2=O)c1 (configuration not stated) -0.129%
CCCCN(C)CCCNC(=O)CN1C(=O)COc2ccc(S(=O)(=O)N3CCOCC3)cc21 3.16%
COc1ccccc1N1CCN(S(=O)(=O)c2c(C)sc3ncn(CC(=O)Nc4ccc(C(F)(F)F)cc4)c(=O)c23)CC1 0.432%
CC(=O)c1ccc(NC(=O)C2CCCN(S(=O)(=O)c3ccc4c(c3)CCCN4C(C)=O)C2)cc1 (configuration not stated) -7.32%
Cc1cc(C)c(NC(=O)CCCN2C(=O)COc3ccc(C)cc32)c(C)c1 -3.78%
COc1ccc(CCNC(=O)CN(c2cc(C(F)(F)F)ccc2Cl)S(C)(=O)=O)cc1 12.2%
Cc1ccc(OCC(=O)Nc2ccccc2C(=O)OCc2cc(=O)n3ccsc3n2)cc1C 0%
O=C(Cn1ccc2cc(S(=O)(=O)N3CCCCC3)ccc21)NCCc1ccc(Cl)cc1 -7.44%
O=C(O)Cc1sc(Nc2ccccc2Cl)nc1-c1ccccc1 -1.18%
CCOC(=O)c1c(NC(=O)Cc2coc3cc(C)ccc23)sc2c1CCCC2 2.19%
CCc1ccc(NC(=O)c2cc3nc(-c4ccc(C)cc4)cc(C(F)(F)F)n3n2)cc1 -4.17%
COC(=O)c1sc(NC(=O)c2cc3nc(-c4ccc(Br)cc4)cc(C(F)(F)F)n3n2)c(C(=O)OC)c1C -0.0379%
CCOC(=O)c1cc(S(=O)(=O)N2CCN(c3cc(C)ccc3C)CC2)[nH]n1 -3.29%
COc1ccccc1Nc1nn2c(=O)c3ccc(C(=O)N4CCCCC4)cc3nc2s1 -1.09%
Cc1cccc(C)c1N1CC(c2nc3ccccc3n2CC(=O)OC(C)C)CC1=O (configuration not stated) -4.44%
COc1ccc(NC(=O)CSc2nc3cc(OC)c(OC)cc3c3nc(-c4ccccc4)nn23)cc1Cl -8.03%
COC(=O)c1ccc(NC(=O)C(=O)NCCc2sc(-c3cccc(F)c3)nc2C)cc1 -0.582%
COc1cc(-c2ccno2)ccc1S(=O)(=O)N1CCN(c2ccccc2F)CC1 2.32%
COc1ccc(CC(=O)NCc2nc3cccnc3n2Cc2ccc(C)cc2)cc1 -6.95%
CCCN(CCC)C(=O)CSc1nc2ccccc2c(=O)n1Cc1ccco1 2.08%
CC1CCN(S(=O)(=O)c2cc3c4c(c2)CC(=O)N4CCC3)CC1 -7.68%
Fc1ccc(-c2cc(-c3ccccc3)c3c(n2)-c2cc(F)ccc2OC3)cc1 2.36%
Cc1ccc(-c2c(C)n3c4c(=O)n(C)c(=O)n(C)c4nc3n2-c2cccc(O)c2)cc1 -1.31%
COc1ccc(S(=O)(=O)NCC(c2ccco2)N2CCOCC2)cc1 (configuration not stated) 0.41%
Cc1cc(C)cc(NC(=O)CSc2oc(-c3cccs3)nc2S(=O)(=O)c2ccccc2)c1 0%
Cn1c(=O)c2c(nc(NCc3ccccc3)n2Cc2ccccc2Cl)n(C)c1=O 7.46%
O=C(C1CC1)N1CCN(c2nc3ccc(F)cc3s2)CC1 0.358%
CN(C)S(=O)(=O)c1ccc2c(c1)nnn2CCNC(=O)Nc1ccc(Br)cc1 0%
CCCCOc1ccc(CNC(=O)c2cnc3sc(N4CCOCC4)nn3c2=O)cc1 7.37%
COc1cccc(OCc2nc3ccccc3n2CCOc2ccccc2C)c1 -11.4%
O=C(CCn1ccc2cc(S(=O)(=O)N3CCCC3)ccc21)NCc1cccc(Br)c1 -10%
Cc1ccc(C)c(Nc2nn3c(=O)c4ccc(C(=O)NC5CCCCC5)cc4nc3s2)c1 -2.32%
COc1ccc(CCNC(=O)CCCCn2c(=O)c3ccccc3n(Cc3ccc(F)cc3Cl)c2=O)cc1OC -6.91%
Cc1ccc(C(=O)NCC(c2cccnc2)N2CCc3ccccc32)cc1C (configuration not stated) 5.68%
Cc1ccc(-c2nc3ncccc3o2)cc1NC(=O)c1cccc(OCC(C)C)c1 -7.22%
CCC1CN(C(=O)Nc2cc(C)cc(C)c2)c2ccccc2O1 (configuration not stated) -17.7%
Cc1cc(NC(=O)c2cc(-c3ccc(Cl)cc3)on2)nn1Cc1ccc(Cl)cc1 -10.3%
CCc1ccc(NC(=O)Cn2c(=O)n(CCC(=O)NCc3ccc4c(c3)OCO4)c(=O)c3ccccc32)cc1 4.02%
Cc1c(C)n(Cc2ccccc2)c2ccc(C(=O)NCc3ccco3)cc12 -12.5%
Cc1c(-c2nsc(NC(=O)c3cccs3)n2)nnn1-c1ccc(Br)cc1 -12%
Cc1cccc(CN2CCc3nc(N4CCN(c5ccccn5)CC4)ncc3C2)c1 0%
COc1cccc(Cn2c(=O)n(-c3ccccc3C)c(=O)c3c2c2cc(C)ccc2n3C)c1 1.48%
COc1cccc(NC(=O)C2CCN(C(=O)N3CC(C)Oc4ccccc43)CC2)c1 (configuration not stated) -10.2%
COc1ccc(Cl)cc1C(=O)Nc1ccc(-c2nnc3n2CCCCC3)cc1 -9.11%
O=C(NCc1ccccc1Cl)c1ccc2c(O)c(S(=O)(=O)c3ccccc3)c(=O)[nH]c2c1 1.39%
Cc1ccc(CNC(=O)CN2C(=O)C3CCCCN3c3ccc(C(=O)N4CCCC4)cc32)cc1 (configuration not stated) -9.14%
CC(=O)c1ccc(NC(=O)CCc2c(C)nc3cc(-c4ccc(Cl)cc4)nn3c2C)cc1 -10.9%
Cc1ccc(C)c(NC(=O)CN(CCc2ccccc2)S(=O)(=O)c2ccccc2)c1 7.31%
Cc1cccc(Cc2c(C)nc3nc(SCc4ccccc4C)nn3c2C)c1 2.4%
CC(C)CCNC(=O)[C@@H](c1ccccc1)N1Cc2ccccc2C1=O 1.19%
CCOc1ccc(NC(=O)Cn2nnc(C(=O)Nc3ccc(OCC)cc3)c2N)cc1 -2.03%
CCc1nn(CC(=O)NC(C)c2ccccc2)c(=O)c2cc3sccc3n12 (configuration not stated) 1.33%
CCOC(=O)C1=C(CS(=O)(=O)c2ccc(F)cc2)NC(=O)NC1c1ccc(OCC)c(OC)c1 (configuration not stated) -16.6%
Cc1cc(C)cc(OCC(=O)NCC2(N(C)C)CCCCC2)c1 0%
Cc1ccc(C)c(N2CCN(c3cc(C)nc4c(-c5ccc(Cl)cc5)c(C)nn34)CC2)c1 -6.55%
CCCc1cc(=O)n2[nH]c(NCc3ccccc3OC)nc2n1 -1.6%
Cc1ccc(S(=O)(=O)N2CCC(c3ccncc3)CC2)c(C)c1 -6.69%
O=C(COc1ccccc1-c1nc(-c2ccccc2)no1)Nc1ccccc1[N+](=O)[O-] -13.1%
